# Data from PubChem BioAssay AID894 (National Center for Advancing Translational Sciences (NCATS), 2007).
# Hit rate of the full screen: of about 150,000 compounds, about 6,500 (4.3%) were called active. This list was built around the results that the source calls inconclusive (neither active nor inactive); the mix of calls is not that of the screen. The call rests on the fitted dose curve; in most records, active means well fitted inhibition curve with a large enough effect (not every such curve was filed as active); inconclusive means small, poorly fitted or top-dose-only effect, or another doubt; inactive means no such curve, though single readings can be large or run the other way. Potencies of inconclusive entries are left out as doubtful fits.
# Target: 15-hydroxyprostaglandin dehydrogenase [NAD(+)] (Homo sapiens) (UniProt P15428)
# Assay: qHTS Assay for Inhibitors of HPGD (15-Hydroxyprostaglandin Dehydrogenase)
# Details: purified HPGD, NADH fluorescence kinetic, PGE2 substrate; activity change, negative = inhibition: active compounds read low
# Procedure, shortened: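 20 nM HPGD preincubated 15 min at room temperature with compound in 50 mM Tris-HCl pH 8, 0.01% Tween 20. Started with 1 mM NAD+ and 30 uM prostaglandin E2; NADH fluorescence (360/450 nm) read 5 times over 30-s intervals, last minus first.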
# On the % scale 0 is the no-effect control and ±100 the full control effect; potency means the concentration at half of the fitted maximal effect; tags describe the fitted curve by direction and shape.
# UniProt P15428, sequence (P15428 whole entry, looked up): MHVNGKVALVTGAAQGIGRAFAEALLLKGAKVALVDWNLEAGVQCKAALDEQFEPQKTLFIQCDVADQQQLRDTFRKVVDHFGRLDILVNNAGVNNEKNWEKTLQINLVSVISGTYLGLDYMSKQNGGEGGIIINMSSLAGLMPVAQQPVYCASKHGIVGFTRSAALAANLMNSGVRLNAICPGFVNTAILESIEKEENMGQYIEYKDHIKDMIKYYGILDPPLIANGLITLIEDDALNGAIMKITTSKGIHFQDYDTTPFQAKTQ
Compound,Potency,"activity change, negative = inhibition"
O/N=C1\CCCCc2ccccc21,"inconclusive [inhibitor, partial curve, poor fit]",
CCOC(=O)CC(=O)CSc1ncnc2c1oc1ccccc12,active: 14.1 µM,
CCCCc1nc(NCCNC(=O)c2ccco2)c(C#N)c2c1CSC(C)(C)C2,"inconclusive [inhibitor, partial curve]",
Cc1nn(C(=O)c2cccnc2)c(C)c1Sc1ccc(Br)cc1,active: 14.1 µM,
COc1ccc(CN(C(=O)CSc2nnc(-c3ccccc3C)o2)c2ccc(F)cc2)cc1,"inconclusive [inhibitor, partial curve, poor fit]",
Cc1csc(NC(=O)c2ccc(-c3ccc(Cl)cc3Cl)o2)n1,"inconclusive [inhibitor, partial curve]",
Cc1nn(C)c(C)c1C1C(C#N)=C(N)OC2=C1C(=O)CCC2 (stereo unspecified),,inactive: -8.9%
COc1ccc(S(=O)(=O)Oc2ccc3c(c2)O/C(=C\c2cccnc2)C3=O)cc1,active: 15.8 µM,
COn1c(SCc2ccccc2)nc2ccccc2c1=O,"inconclusive [inhibitor, partial curve]",
O=C(CSC1=Nc2ccccc2C2=NC(c3ccccc3)C(=O)N12)NCC1CCCO1 (stereo unspecified),"inconclusive [inhibitor, partial curve]",
CSC1=C(C#N)C(c2ccc3c(c2)OCO3)C2=C(CCCC2=O)N1 (stereo unspecified),active: 15.8 µM,
O=C(CCS(=O)(=O)c1ccccc1)Nc1cccc(-c2nc3ccccc3s2)c1,"inconclusive [inhibitor, partial curve]",
CC1=C(SCCC#N)S/C(=C2\SC(C)=C(SCCC#N)S2)S1,active: 17.8 µM,
N#CC1=C(N)SC(N)=C(C#N)C1c1ccoc1,active: 28.2 µM,
Cc1ccc(OCCCn2c(=O)sc3ccccc32)cc1,"inconclusive [inhibitor, partial curve]",
COc1cccc(-c2nnc(SCCOc3ccc4c(C)cc(=O)oc4c3)o2)c1,"inconclusive [inhibitor, single point]",
CCOC(=O)c1c(-c2ccccc2)oc2ccc(OC(C)=O)cc12,"inconclusive [inhibitor, partial curve]",
O=C(NCCc1ccccc1)c1cccc([N+](=O)[O-])c1,"inconclusive [inhibitor, partial curve]",
COc1cc(OC)cc(C(=O)Nc2ccc(-c3nc4ccccc4o3)cc2)c1,"inconclusive [inhibitor, partial curve]",
O=c1c2[nH]c3ccc(Br)cc3c2ncn1CCCn1ccnc1,"inconclusive [inhibitor, partial curve]",
CCCCC(=O)NC(c1ccco1)c1c(O)ccc2ccccc12 (stereo unspecified),"inconclusive [inhibitor, partial curve]",
CS(=O)(=O)N(CC(=O)NC1CCCC1)Cc1ccc(Cl)cc1,,inactive: -13.7%
C=CCN1C(=O)S/C(=C\c2ccc(N3CCOCC3)cc2C)C1=O,"inconclusive [inhibitor, full curve, poor fit]",
CC1=N/C(=C\c2ccc([N+](=O)[O-])cc2)C(=O)N1c1ccc(Br)c(C)c1,,inactive: -6.83%

Compound,Potency,"activity change, negative = inhibition"
O=C(NCc1ccco1)c1csc2c1CCCCC2,active: 6.31 µM,
COc1ccc2[nH]c3c(=O)n(CCCCC(=O)NCCN4CCCC4)c(=S)[nH]c3c2c1,"inconclusive [inhibitor, partial curve]",
Brc1ccc(C2=NCCC(c3ccccc3)O2)cc1 (stereo unspecified),"inconclusive [inhibitor, partial curve]",
CCCCc1ccc(NC(=O)COCC)cc1,active: 10 µM,
COc1cc(/C=C2/C(=O)N=C(N)N2C)cc(OC)c1OC,active: 15.8 µM,
CCOC(=O)c1nn(-c2ccccc2C)c2nc(Nc3ccccc3)cc(=O)n12,"inconclusive [inhibitor, partial curve]",
COCCn1c(-c2ccc(OC)cc2)cnc1SCC(=O)Nc1cccc2ccccc12,"inconclusive [inhibitor, partial curve]",
CCOC(=O)c1c(CN2CCCCC2)oc2ccc(OC)cc12,"inconclusive [inhibitor, single point]",
COc1cc(C(=O)N2CCN(Cc3ccccc3C(F)(F)F)CC2)cc(OC)c1OC,,inactive: -8.76%
Cc1cc(C(=O)OCC(=O)c2cccc([N+](=O)[O-])c2)c2ccccc2n1,,inactive: -23.6%
COC(=O)c1cn(NC(=O)c2cnccn2)c(=O)c2ccccc12,,inactive: -4.36%
CC(=O)c1cc2c(cc1N/C(=N/S(=O)(=O)c1ccccc1)c1ccc(Cl)cc1)OCO2,"inconclusive [inhibitor, partial curve]",
Cc1oc(C(=O)O)cc1COc1ccc2c3c(c(=O)oc2c1)CCC3,"inconclusive [inhibitor, partial curve]",
Cc1ccc(S(=O)(=O)NC(=O)c2ccc(-c3ccc(C)c4ccccc34)o2)cc1,"inconclusive [inhibitor, partial curve]",
O=C(Nc1cccc(-c2nc3ncccc3o2)c1)c1cc2ccccc2o1,"inconclusive [inhibitor, partial curve]",
Cc1nc(N)c(C#N)c(-c2cccnc2)c1C,,inactive: -10.6%
Cc1ccc(C2N(C)c3ccccc3-c3nc4ccccc4n32)o1 (stereo unspecified),"inconclusive [inhibitor, partial curve]",
O=C(O)CSc1nnc(SCc2cccc3ccccc23)s1,active: 15.8 µM,
CCOc1ccccc1-n1c(SCC(=O)Nc2ccc(CC)cc2)nc2n[nH]c(C)c2c1=N,"inconclusive [inhibitor, partial curve]",
O=C(c1coc(=O)c(Br)c1)N1CCCc2ccccc21,"inconclusive [inhibitor, partial curve]",
CC(C)c1nc(-c2ccc([N+](=O)[O-])cc2)cs1,,inactive: -13.8%
COc1cc(C(=O)Nc2nc(C)c(Cc3ccc4c(c3)OCO4)s2)cc(OC)c1OC,"inconclusive [inhibitor, partial curve]",
O[C@@H](CNC[C@H](O)c1ccccc1)c1ccccc1,,inactive: -11.8%
Cc1nc2cc3c(cc2c(C)c1C(=O)OC(C)C)OCO3,"inconclusive [inhibitor, full curve, poor fit]",

Compound,Potency,"activity change, negative = inhibition"
O=C1CN(C(=O)C2CCCC2)CCN1,,inactive: -0.406%
O=C(NCCCn1ccnc1)c1cc(-c2ccc3c(c2)OCO3)on1,,inactive: -16.3%
Cc1ccc(OC(=O)c2ccc(N3CCOCC3)c([N+](=O)[O-])c2)cc1,"inconclusive [inhibitor, partial curve, poor fit]",
O=S(=O)(c1ccccc1)N1CCC2(CCN(Cc3ccccc3)CC2)CC1,,inactive: -4.36%
NS(=O)(=O)c1ccc(CCNC(=O)c2cccnc2)cc1,,inactive: -12.5%
CC(C)NC(=O)N1CCC2(CC1)CCN(C(=O)c1cnccn1)CC2,,inactive: -10.5%
COc1ccc2cc(C(=O)COC(=O)COc3ccc4c(C)cc(=O)oc4c3)ccc2c1,"inconclusive [inhibitor, partial curve]",
N#Cc1ccccc1-c1ccc2ncnc(N3CCNCC3)c2c1,"inconclusive [inhibitor, partial curve]",
CCOC(=O)C1=C(C)OC(N)=C(C#N)C1c1cc2cc(C)ccc2nc1N1CCCCC1 (stereo unspecified),"inconclusive [inhibitor, partial curve]",
Cc1ccnc(NS(=O)(=O)c2ccc(NC(=O)C3CCCNC3=O)cc2)n1 (stereo unspecified),,inactive: -4.47%
O=C(C1CC(c2ccc(F)cc2)=NO1)N1CCCc2ccccc21 (stereo unspecified),,inactive: -7.97%
CC(C)(C)NC(=O)c1nc2nc(-c3ccccc3)cc(C(F)(F)F)n2n1,"inconclusive [inhibitor, partial curve]",
O=C1OC2(c3cc(Br)c(O)c(Br)c3Oc3c2cc(Br)c(O)c3Br)c2c(Cl)c(Cl)c(Cl)c(Cl)c21,active: 12.6 µM,
CCn1c(/C(C#N)=C(\O)CCc2ccccc2)nc2ccccc21,"inconclusive [inhibitor, single point]",
O=C(Nc1nc(-c2cccs2)c(-c2ccccc2)s1)c1ccco1,"inconclusive [inhibitor, partial curve]",
COC(=O)c1c(C(=O)OC)n(CCCN)c2ccc(C)cc12,"inconclusive [inhibitor, single point]",
Cc1nc2ncnn2c(N2CCCC(C(=O)Nc3ccc4c(c3)CCC4)C2)c1C (stereo unspecified),active: 28.2 µM,
CCOc1ccc(N2C(=O)C3C(c4ccccc4)=NN(c4ccccc4)C3C2=O)cc1 (stereo unspecified),"inconclusive [inhibitor, partial curve]",
Cc1cc2c(C)c(C)c(=O)[nH]c2cc1N,"inconclusive [inhibitor, partial curve]",
COc1ccc(CNC(=O)COC(=O)Cc2ccc(Cl)cc2Cl)cc1,,inactive: -17.9%
N=C1C(c2nc3ccccc3c(=O)[nH]2)=C(O)CN1CCc1ccccc1,"inconclusive [inhibitor, partial curve]",
Cc1ccc(/C=C/C(=O)Nc2cccnc2)o1,active: 22.4 µM,
COCC(C)n1c(C)cc(C(=O)CSc2ccc(NC(C)=O)cc2)c1C (stereo unspecified),"inconclusive [inhibitor, single point]",
